According to PMC4336329 (PLoS ONE, 2015):
In all, about 310,000 compounds went through this assay and about 14,000 (4.5%) showed an effect of 50% or more. The effect is printed as a negative number. The list shows a part of the results.

molecular target: human ether-à-go-go-related gene (hERG) potassium channel (human, UniProt Q12809); test: primary screen, population patch clamp on CHO cells stably expressing hERG
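Also: peak tail current of the secondary pulse compared with the same well before compound.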

Chain of human ether-à-go-go-related gene (hERG) potassium channel (Q12809 whole entry, looked up): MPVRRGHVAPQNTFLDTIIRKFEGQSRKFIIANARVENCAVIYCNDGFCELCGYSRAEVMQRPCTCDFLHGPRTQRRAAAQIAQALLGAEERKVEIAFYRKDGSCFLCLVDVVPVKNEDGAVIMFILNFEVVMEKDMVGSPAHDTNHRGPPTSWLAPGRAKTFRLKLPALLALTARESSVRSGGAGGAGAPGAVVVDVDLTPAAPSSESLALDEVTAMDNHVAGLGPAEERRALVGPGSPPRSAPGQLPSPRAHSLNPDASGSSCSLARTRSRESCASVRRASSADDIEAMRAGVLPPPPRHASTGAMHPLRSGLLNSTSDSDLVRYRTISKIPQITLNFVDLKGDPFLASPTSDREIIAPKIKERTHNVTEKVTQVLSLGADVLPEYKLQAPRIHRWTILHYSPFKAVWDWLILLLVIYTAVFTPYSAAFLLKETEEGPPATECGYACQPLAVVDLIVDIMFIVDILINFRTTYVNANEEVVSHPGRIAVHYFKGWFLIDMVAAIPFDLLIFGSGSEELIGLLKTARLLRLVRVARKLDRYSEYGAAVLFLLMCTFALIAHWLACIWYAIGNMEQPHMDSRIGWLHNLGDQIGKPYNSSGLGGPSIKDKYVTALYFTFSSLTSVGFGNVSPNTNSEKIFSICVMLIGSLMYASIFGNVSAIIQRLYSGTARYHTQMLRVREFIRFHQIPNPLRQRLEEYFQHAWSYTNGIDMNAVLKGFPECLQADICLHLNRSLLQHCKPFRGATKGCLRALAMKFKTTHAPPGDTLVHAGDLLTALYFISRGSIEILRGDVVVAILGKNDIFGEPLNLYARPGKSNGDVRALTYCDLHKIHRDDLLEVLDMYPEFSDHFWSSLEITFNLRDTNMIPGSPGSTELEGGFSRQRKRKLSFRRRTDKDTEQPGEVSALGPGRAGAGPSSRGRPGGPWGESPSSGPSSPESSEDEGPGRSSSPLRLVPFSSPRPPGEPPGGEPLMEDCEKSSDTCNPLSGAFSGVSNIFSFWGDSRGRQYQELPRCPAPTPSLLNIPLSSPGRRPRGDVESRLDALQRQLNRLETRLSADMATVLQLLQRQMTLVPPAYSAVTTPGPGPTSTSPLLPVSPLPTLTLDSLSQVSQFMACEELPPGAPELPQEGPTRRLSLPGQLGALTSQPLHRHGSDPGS

Structure (SMILES) | hERG current change (%, negative = inhibition) at 10uM
CS(=O)(=O)NN1C(=O)c2ccccc2NC1c1cccc(O)c1 (centres unmarked) | 8.93%
O=C(NC1CCCCC1)c1nc2c(nnn2Cc2ccccc2Cl)c(=O)[nH]1 | 21.5%
CCOC(=O)N1CCC(N2CCN(S(=O)(=O)c3ccc(C)cc3)CC2)CC1.O=C(O)C(=O)O | -19.1%
COc1ccccc1N1N=C(C(=O)c2ccccc2)C2C(=O)N(c3ccc(Br)cc3)C(=O)C21 (centres unmarked) | 2.61%
CS(=O)(=O)c1ccc2nc(NC(=O)c3cccc([N+](=O)[O-])c3)sc2c1 | 3.34%
O=C(NCCO)C(=O)NCC1CCCN1S(=O)(=O)c1cccs1 (centres unmarked) | 1.65%
Nc1c(C(=O)NCCN2CCOCC2)c2nc3ccccc3nc2n1CCc1ccccc1F | -27.2%
CCc1sc(-c2c(C#N)c(N)nc3c2CCCCCC3)cc1[N+](=O)[O-] | 14%
CCc1c(C(=O)Nc2cc(C)ccc2OC)[nH]c(C)c1C(C)=O | -4.75%
COCCNC(=O)CSc1nnc(-c2ccccc2F)n1Cc1ccccc1 | -5.26%
Nc1c(C(=O)Nc2ccc3c(c2)OCCO3)nnn1Cc1cccc(Br)c1 | -5.91%
CNC(=S)N1N=C(c2ccc(OC)cc2)CC1c1ccc(Cl)cc1Cl (centres unmarked) | 6.61%
NNC(=O)Cn1c(-c2ccccc2)cc(=O)n2ncnc12 | 5.38%
CC1CCCCN1C(=O)c1ccc(CS(=O)(=O)Cc2ccccc2)cc1 (centres unmarked) | -2.32%
COCCNC(=S)N(CCCO)Cc1cc2cc3c(cc2[nH]c1=O)OCCO3 | 14.2%
COc1ccc(Cc2nnc(NC(=O)Nc3cccc(OC)c3)s2)cc1 | 10.5%
CN(C)S(=O)(=O)c1ccc(Cl)c(NC(=O)COC(=O)CCC(=O)c2cccs2)c1 | -24.9%
CCN(CC(=O)NC1CCS(=O)(=O)C1)C(=O)COc1ccccc1-c1ccccc1 (centres unmarked) | 11.7%
CCN(CC)CC(O)c1cccn1-c1ccc(CNC(=O)NC(C)C)cc1 (centres unmarked) | 14%
O=C(N/N=C1\CCS(=O)(=O)c2ccc(F)cc21)c1ccc([N+](=O)[O-])cc1 | -19.6%
Cc1cc(-c2ccc(C(C)C)c(S(=O)(=O)NCCN3CCC(C)CC3)c2)on1 | -3.78%
CC(C)Cc1nnc(NC(=O)CCNC(=O)c2ccco2)s1 | 10%

Structure (SMILES) | hERG current change (%, negative = inhibition) at 10uM
CCOc1ccc(CN(C)C(=O)c2cccnc2SC)cc1OC | 8.9%
COc1cccc(C(=O)NCCS(=O)(=O)N2CC(C)CC(C)C2)c1 (centres unmarked) | -13%
O=C(Nc1ccc([N+](=O)[O-])cc1)c1cc(Cl)sc1Cl | -1.52%
COc1c(C)cccc1C(=O)Nc1ccc(OCC(=O)N2CCOCC2)cc1C | 27.2%
COc1ccc(C)cc1NC1=NC(C)(C)CS1 | 7.23%
CC(C)(C)NS(=O)(=O)c1ccc(CCC(=O)Nc2cc(Cl)ccc2Oc2ccccc2)cc1 | -3.35%
CN(CCCC(=O)Nc1ccccc1F)S(=O)(=O)c1ccc(F)cc1 | -6.05%
O=C(Nn1c(C2CC2)nc2ccccc2c1=O)c1ccco1 | -8.14%
O=C(CCNC(=O)c1ccc([N+](=O)[O-])cc1)Nc1cccc(S(=O)(=O)N2CCOCC2)c1 | -31.7%
CNC(=O)CN1C(=O)NC(c2ccccc2)(c2ccccc2)C1=O | -2.48%
COc1ccc(CCNC(=O)CN(c2cccc([N+](=O)[O-])c2)S(C)(=O)=O)cc1 | 9.26%
O=C(COc1ccc2ccccc2c1Br)NC(=S)Nc1cccc(CO)c1 | -2.61%
CCOC(=O)c1c(NC(=S)Nc2ccccc2)sc2c1CC(C)(C)SC2 | -3.74%
CSc1cc(-c2ccc(Cl)cc2)[nH]c(=O)c1C#N | 1.3%
CC[N+](C)(CC)CCOC(=O)C(O)(c1ccccc1)C1CCCCC1.[Br-] (centres unmarked) | -2.35%
COCCn1cc(C(=S)N2CCOCC2)c2ccccc21 | -5.24%
Cc1ccc(C)c(NS(=O)(=O)c2ccc(OCC(=O)NCC3CCCO3)cc2)c1 (centres unmarked) | 0.933%
CC(=O)Nc1c(I)c(NC(C)=O)c(I)c(C(=O)[O-])c1I.O.[Na+] | -6.22%
COC(=O)c1[nH]c(C)c(/C(O)=C2\C(=O)C(=O)N(CCN(C)C)C2c2ccc(C)o2)c1C (centres unmarked) | 1.89%
Cl.c1ccc2c(CC3=NCCN3)cccc2c1 | -9.31%
O=C(O)/C=C/c1ccc(-n2ccnc2)cc1 | 16.8%
COc1ccc(S(=O)(=O)N2CCC[C@H]2C(=O)NC2=NCCS2)cc1 | -1.09%
